Measured values reported in publication PMC11995724, “Antibiotic target discovery by integrated phenotypic and activity-based profiling of electrophilic fragments” (Cell chemical biology, 2025).
The whole screen tested about 3,200 compounds, of which about 75 (2%) showed an effect of 50% or more. Some of the results follow.

Test system: T1, S. aureus MSSA476
T1 construct: MSSA476
Set-up: species or system S. aureus MSSA476 (TSB) or V. cholerae SAD30 (LB); 384-well bacterial growth screen at 25 uM, OD600 relative to DMSO control
Conditions: relative growth, OD600, TSB; 25 µM; inhibitor

Question: For `C=CC(=O)N(C)Cc1ccncc1` [1-N21, N-methyl-N-[(pyridin-4-yl)methyl]prop-2-enamide], which “% of control remaining” value is on record?
Answer: The value was 139.253%.

Question: With `Cc1noc(C2CN(C(=O)C(C)Cl)C2)n1` (centres unmarked) [7-G04, 2-chloro-1-[3-(3-methyl-1,2,4-oxadiazol-5-yl)azetidin-1-yl]propan-1-one] as the molecule, how does the “% of control remaining” value read?
Answer: Its value is 74.0973%.

Question: For `O=C(CCl)Cc1c(F)cccc1Cl` [10-D20, 1-chloro-3-(2-chloro-6-fluorophenyl)propan-2-one], which “% of control remaining” value is on record?
Answer: Its value is 108.438%.

Question: How did the “% of control remaining” value turn out when `Cc1ccccc1NC(=O)C(C#N)=Cc1cccc2ccccc12` [8-H09, 2-cyano-N-(2-methylphenyl)-3-(naphthalen-1-yl)prop-2-enamide] was run?
Answer: The value was 106.556%.

Question: Which “% of control remaining” value does the source give for `O=C(CCl)N(Cc1ccc(F)cc1)C1CCCCC1` [4-I13, 2-chloro-N-cyclohexyl-N-[(4-fluorophenyl)methyl]acetamide] here?
Answer: The value was 87.6608%.

Question: Which “% of control remaining” value does the source give for `C=CC(=O)NCC(OC)C1CCOC1` (centres unmarked) [3-L19, N-[2-methoxy-2-(oxolan-3-yl)ethyl]prop-2-enamide] here?
Answer: The value was 86.0253%.

Question: `CC(=O)NCc1ccc(C(=O)CCl)o1` [10-I10, N-{[5-(2-chloroacetyl)furan-2-yl]methyl}acetamide] was tested. Which “% of control remaining” value did it give?
Answer: Its value is 129.375%.

Question: For `O=C(CCl)Nc1ccc(Cl)cc1[N+](=O)[O-]` [5-N08, 2-chloro-N-(4-chloro-2-nitrophenyl)acetamide], which “% of control remaining” value is on record?
Answer: Its value is 141.712%.

Question: For `Cc1ccc(C2CS(=O)(=O)CCN2C(=O)C(C)Cl)o1` (centres unmarked) [6-D19, 4-(2-chloropropanoyl)-3-(5-methylfuran-2-yl)-1lambda6-thiomorpholine-1,1-dione], which “% of control remaining” value is on record?
Answer: Its value is 102.439%.

Question: Which “% of control remaining” value does the source give for `O=C(CCl)c1cnc(N2CCCCC2)s1` [10-L17, 2-chloro-1-[2-(piperidin-1-yl)-1,3-thiazol-5-yl]ethan-1-one] here?
Answer: Its value is 99.375%.

Question: `Cc1nnnn1-c1ccc(F)c(NC(=O)CCl)c1` [6-E13, 2-chloro-N-[2-fluoro-5-(5-methyl-1H-1,2,3,4-tetrazol-1-yl)phenyl]acetamide] was tested. Which “% of control remaining” value did it give?
Answer: The value was 106.878%.

Question: With `CC1(C)C(=O)Nc2ccc(C(=O)CCl)cc21` [10-N21, 5-(2-chloroacetyl)-3,3-dimethyl-2,3-dihydro-1H-indol-2-one] as the molecule, how does the “% of control remaining” value read?
Answer: The value was 40.3125%.

Question: `C=CC(=O)NC(CO)c1nc(C)no1` (centres unmarked) [1-C05, N-[2-hydroxy-1-(3-methyl-1,2,4-oxadiazol-5-yl)ethyl]prop-2-enamide] was tested. Which “% of control remaining” value did it give?
Answer: The value was 95.6484%.

Question: For `CC(=O)Nc1ccc(C=C(C#N)C(=O)Nc2c(C)cc(C)cc2C)cc1` [8-M13, 2-cyano-3-(4-acetamidophenyl)-N-(2,4,6-trimethylphenyl)prop-2-enamide], which “% of control remaining” value is on record?
Answer: The value was 112.863%.

Question: How did the “% of control remaining” value turn out when `CC(Cl)C(=O)Nc1cccc(CSc2ccccn2)c1` (centres unmarked) [5-B18, 2-chloro-N-{3-[(pyridin-2-ylsulfanyl)methyl]phenyl}propanamide] was run?
Answer: The value was 111.111%.

Question: For `N#CC(=CN1CCN(c2ccccc2)CC1)C(=O)Nc1ccc(F)cc1` [8-C20, 2-cyano-N-(4-fluorophenyl)-3-(4-phenylpiperazin-1-yl)prop-2-enamide], which “% of control remaining” value is on record?
Answer: The value was 86.639%.

Question: Which “% of control remaining” value does the source give for `C=CC(=O)N(C)C1CCN(c2cnccn2)CC1` [1-B12, N-methyl-N-[1-(pyrazin-2-yl)piperidin-4-yl]prop-2-enamide] here?
Answer: Its value is 112.176%.

Question: With `N#CC(=Cc1c2ccccc2c(Cl)c2ccccc12)C(N)=O` [8-N12, 3-(10-chloroanthracen-9-yl)-2-cyanoprop-2-enamide] as the molecule, how does the “% of control remaining” value read?
Answer: The value was 127.137%.

Question: `CC(c1cnn(C)c1)N(C)C(=O)CCl` (centres unmarked) [5-M04, 2-chloro-N-methyl-N-[1-(1-methyl-1H-pyrazol-4-yl)ethyl]acetamide] was tested. Which “% of control remaining” value did it give?
Answer: The value was 96.1749%.

Question: How did the “% of control remaining” value turn out when `CC(Cl)C(=O)N1CCC(c2nccn2C)C1` (centres unmarked) [6-F15, 2-chloro-1-[3-(1-methyl-1H-imidazol-2-yl)pyrrolidin-1-yl]propan-1-one] was run?
Answer: The value was 88.0976%.

Question: With `O=C(CCl)Nc1cccc(S(=O)(=O)N=C2CCCCCN2)c1` [4-D08, N-{3-[(azepan-2-ylidene)sulfamoyl]phenyl}-2-chloroacetamide] as the molecule, how does the “% of control remaining” value read?
Answer: The value was 80.4192%.

Question: For `CC(Cl)C(=O)N(C)C1CCN(C(=O)c2ccccc2)CC1` (centres unmarked) [6-B18, N-(1-benzoylpiperidin-4-yl)-2-chloro-N-methylpropanamide], which “% of control remaining” value is on record?
Answer: Its value is 99.0244%.

Question: `CNC(=O)C(C#N)=Cc1ccc(F)cc1` [9-B14, 2-cyano-3-(4-fluorophenyl)-N-methylprop-2-enamide] was tested. Which “% of control remaining” value did it give?
Answer: Its value is 86.2921%.

Question: For `Cc1cc(NC(=O)CN(C)C(=O)C(C)Cl)no1` (centres unmarked) [7-M19, 2-chloro-N-methyl-N-{[(5-methyl-1,2-oxazol-3-yl)carbamoyl]methyl}propanamide], which “% of control remaining” value is on record?
Answer: The value was 91.6797%.

Question: Which “% of control remaining” value does the source give for `Cn1c(-c2ccccc2)c(C(=O)CCl)c2ccccc21` [10-N04, 2-chloro-1-(1-methyl-2-phenyl-1H-indol-3-yl)ethan-1-one] here?
Answer: The value was 49.0625%.

Question: With `N#Cc1ccc(OC2CN(C(=O)CCl)C2)cc1` [5-K07, 4-{[1-(2-chloroacetyl)azetidin-3-yl]oxy}benzonitrile] as the molecule, how does the “% of control remaining” value read?
Answer: The value was 119.126%.

Question: Which “% of control remaining” value does the source give for `CC(=O)NCc1ccc(C(=O)C(C)Cl)s1` (centres unmarked) [10-M04, N-{[5-(2-chloropropanoyl)thiophen-2-yl]methyl}acetamide] here?
Answer: Its value is 110%.

Question: `CC(Cl)C(=O)NC1CCN(S(=O)(=O)c2cnn(C)c2)CC1` (centres unmarked) [7-O05, 2-chloro-N-{1-[(1-methyl-1H-pyrazol-4-yl)sulfonyl]piperidin-4-yl}propanamide] was tested. Which “% of control remaining” value did it give?
Answer: Its value is 114.286%.

Question: For `COc1cc(C=C(C#N)C(=O)Nc2nccs2)cc(OC)c1O` [8-M19, 2-cyano-3-(4-hydroxy-3,5-dimethoxyphenyl)-N-(1,3-thiazol-2-yl)prop-2-enamide], which “% of control remaining” value is on record?
Answer: The value was 80%.

Question: Which “% of control remaining” value does the source give for `C=CC(=O)NCc1ccnc(-n2cncn2)c1` [3-B18, N-{[2-(1H-1,2,4-triazol-1-yl)pyridin-4-yl]methyl}prop-2-enamide] here?
Answer: The value was 139.66%.

Question: Which “% of control remaining” value does the source give for `C=CC(=O)N[C@H](C)c1cnnn1C` [3-B11, N-[(1R)-1-(1-methyl-1H-1,2,3-triazol-5-yl)ethyl]prop-2-enamide] here?
Answer: The value was 140.009%.

Question: Which “% of control remaining” value does the source give for `CC(C)NC(=O)C(C#N)=Cc1cccc2ccccc12` [8-P06, 2-cyano-3-(naphthalen-1-yl)-N-(propan-2-yl)prop-2-enamide] here?
Answer: The value was 127.801%.

Question: Which “% of control remaining” value does the source give for `C=CC(=O)NC1(c2ncon2)CCOCC1` [3-K22, N-[4-(1,2,4-oxadiazol-3-yl)oxan-4-yl]prop-2-enamide] here?
Answer: Its value is 88.8115%.

Question: With `N#CC(=Cc1c2ccccc2cc2ccccc12)C(=O)NC1CCCCC1` [8-D14, 3-(anthracen-9-yl)-2-cyano-N-cyclohexylprop-2-enamide] as the molecule, how does the “% of control remaining” value read?
Answer: The value was 122.822%.

Question: How did the “% of control remaining” value turn out when `O=C1CCc2cc(C(=O)CCl)ccc2N1` [10-M03, 6-(2-chloroacetyl)-1,2,3,4-tetrahydroquinolin-2-one] was run?
Answer: The value was 83.125%.

Question: Which “% of control remaining” value does the source give for `C=CC(=O)N1CCC(NC(=O)c2oc(C)cc2C)CC1` [2-K17, 3,5-dimethyl-N-[1-(prop-2-enoyl)piperidin-4-yl]furan-2-carboxamide] here?
Answer: The value was 106.179%.

Question: How did the “% of control remaining” value turn out when `CC(Cl)C(=O)N1CCOCC1c1ncnn1Cc1ccccc1` (centres unmarked) [7-C08, 1-[3-(1-benzyl-1H-1,2,4-triazol-5-yl)morpholin-4-yl]-2-chloropropan-1-one] was run?
Answer: The value was 96.3893%.

Question: Which “% of control remaining” value does the source give for `O=C(CCl)NCc1cccc(NC(=O)C2CC2)c1` [4-D22, N-{3-[(2-chloroacetamido)methyl]phenyl}cyclopropanecarboxamide] here?
Answer: The value was 114.721%.

Question: For `NC(=O)Cc1ccc(C(=O)CCl)s1` [10-A21, 2-[5-(2-chloroacetyl)thiophen-2-yl]acetamide], which “% of control remaining” value is on record?
Answer: Its value is 152.5%.

Question: For `COc1cc(Cl)c(C)cc1N1C(=O)C=CC1=O` [10-B15, 1-(4-chloro-2-methoxy-5-methylphenyl)-2,5-dihydro-1H-pyrrole-2,5-dione], which “% of control remaining” value is on record?
Answer: Its value is 91.875%.

Question: How did the “% of control remaining” value turn out when `C=CC(=O)N1CCC(C(=O)N2CCCCC(SCC)C2)CC1` (centres unmarked) [2-P10, 1-{4-[3-(ethylsulfanyl)azepane-1-carbonyl]piperidin-1-yl}prop-2-en-1-one] was run?
Answer: Its value is 76.9365%.

Question: Which “% of control remaining” value does the source give for `C=CC(=O)NC(c1ccccc1)c1nc(C)no1` (centres unmarked) [1-B13, N-[(3-methyl-1,2,4-oxadiazol-5-yl)(phenyl)methyl]prop-2-enamide] here?
Answer: The value was 150.857%.

Question: How did the “% of control remaining” value turn out when `C=CC(=O)NCC1CCS(=O)(=O)C1(C)C` (centres unmarked) [1-O16, N-[(2,2-dimethyl-1,1-dioxo-1lambda6-thiolan-3-yl)methyl]prop-2-enamide] was run?
Answer: The value was 125.89%.

Question: Which “% of control remaining” value does the source give for `CCC(C)(C)C1CCc2c(sc(NC(=O)CCl)c2C#N)C1` (centres unmarked) [5-A05, 2-chloro-N-[3-cyano-6-(2-methylbutan-2-yl)-4,5,6,7-tetrahydro-1-benzothiophen-2-yl]acetamide] here?
Answer: Its value is 77.9599%.

Question: How did the “% of control remaining” value turn out when `C=CC(=O)NC1CCC(S(C)(=O)=O)C1` (centres unmarked) [3-F18, N-(3-methanesulfonylcyclopentyl)prop-2-enamide] was run?
Answer: Its value is 114.236%.

Question: For `Cc1c(C=C(C#N)C(=O)NCC2(c3ccccc3)CC2)cc(C#N)n1C` [8-E22, 2-cyano-3-(5-cyano-1,2-dimethyl-1H-pyrrol-3-yl)-N-[(1-phenylcyclopropyl)methyl]prop-2-enamide], which “% of control remaining” value is on record?
Answer: Its value is 97.5934%.

Question: `CCc1ccc(NC(=O)CCl)cc1` [4-P03, 2-chloro-N-(4-ethylphenyl)acetamide] was tested. Which “% of control remaining” value did it give?
Answer: The value was 94.1401%.
